The other results are listed elsewhere or left out.
B1: chr3:125012942:125013043:-|CDS|ENSG00000173706|msi1|FALSE|bound_elsewhere (ssRNA)
RNA: GGGAGUUCUACAGUCCGACGAUCGCCUCUUAUGACCACUCCUGGCACCCUGUCAAGCACAGCAUCUCUGGUCACUGGCCCUAUAGCCGUACAGACUACAGCUGGAAAACAGCUCUCGCUGACCCAUCCUGAAAUACUAGUUCCCAACAGAGGAUUGAGCAUCA
B2: chr8:116854276:116854437:-|CDS|ENSG00000164754|unk|total|mutant (ssRNA)
RNA: GGGAGUUCUACAGUCCGACGAUCAGGAAGCUAAUUGUUGACAGUGUCAAAGAGUUGGACCGCAAGACAAUCCGAGCCCAACUCCGUGAUUAUUCAGAUAUUGUUACUACUUUGGAUCUGGCACCGCCCACCAAGAAAUUGAUGCAACAGAGGAUUGAGCAUCA
B3: chr7:73597181:73597713:-|CDS|ENSG00000009950|control|control|control (ssRNA)
RNA: GGGAGUUCUACAGUCCGACGAUCGCCCAGAGGCAAGCCCCCCGCCCCAUCCCCUAGGGGACAGAAAGCCAGCCCCCCUACCUUAGCCCCUGCCACUGCCAGUCCCCCCACCACUGCGGGGAGCAACAACCCCUGCCUCACACACAACAGAGGAUUGAGCAUCA
B4: chr7:93099512:93101327:-|three_prime_utr|ENSG00000205413|control|control|control (ssRNA)
RNA: GGGAGUUCUACAGUCCGACGAUCUCUCAGUACCCAUUUAAUUUUUUUGGACUCAAGAUCUAUGCUUUAAACCGGCAAGGUUAUAGAUACAGCCUCUAGCUCUUCAGAUCUGUACAUGCAGUAUUUAAUUUCCUCUUAAACAUGCAACAGAGGAUUGAGCAUCA
B5: ENSG00000168795:stop:overlap|stop_codon|ENSG00000168795|stop_codon|NA|stop_codon (ssRNA)
RNA: GGGAGUUCUACAGUCCGACGAUCAGCACUCAAAGACUACCUGCCUGCGCUGGCAGAGCAGCAAUCUUCCCAGCACUUUGCUCUAGCUGUUUGUCCUUACAAGACAACGCUGAGGCCAGUUGUCAGACUGAAUUUCUUUUGGUACAACAGAGGAUUGAGCAUCA
B6: chr1:229660051:229660152:+|3pUTR|ENSG00000135763|msi1|total|mutant (ssRNA)
RNA: GGGAGUUCUACAGUCCGACGAUCCUCAUUCACCGUCUCAGUUACCCAGAUAACCUCGGUUGUCACCUUGGAGUAUCUUGUUGCCGUCCCUUUACUAUGUGUAUGUAUACCGAUGUGCAUAUAAAUAUAUACCGCCGCUAAAUUCAACAGAGGAUUGAGCAUCA
B7: chr19:4409044:4409156:+|CDS|ENSG00000167670|unk|FALSE|unique (ssRNA)
RNA: GGGAGUUCUACAGUCCGACGAUCCUGUCAUGUGGGUUCUGACAUAGACUUUAGACCGAAACUUGUCAACGGGAAGGGUCCCUUAGAUAACUUUUUAAGAAAUAGAAUCGAAACCAGUAUUGGCCAGAGCACAGUCAUCAUUGACAACAGAGGAUUGAGCAUCA
B8: ENSG00000006432:stop:overlap|stop_codon|ENSG00000006432|stop_codon|NA|stop_codon (ssRNA)
RNA: GGGAGUUCUACAGUCCGACGAUCGAGCGGAACUGAACACACACAGGCCUGCCCCUUAUGAGAUCCAGCAGGAGUUCUGGUCUUAGCACGAAAAGGAUUGGGGCGGGCAAGGGGGACAGCCAGCGGAGAUGAGGGGAGCUGGCGCAACAGAGGAUUGAGCAUCA
B9: chr17:75827259:75827360:-|3pUTR|ENSG00000092929|unk|FALSE|unique (ssRNA)
RNA: GGGAGUUCUACAGUCCGACGAUCGGACAGUUUGGCUGCUGUGUCUGCUGCGCACGCCCCCUCCCCGGACAGCACCUGCCACCUAGAAACUUUCUUAGCAAAAAAAUUAAUAAAAACAAAUCCAUUGUCCUCUUAAAAUAUGCCCAACAGAGGAUUGAGCAUCA
B10: chr3:167305642:167305950:-|CDS|ENSG00000169064|control|control|control (ssRNA)
RNA: GGGAGUUCUACAGUCCGACGAUCAAAGUCUGAUGAUUCCUGUGUAUCACUUGAAAGCAAGGACACUUUGCUAGGUAGAGAUUUAGAAAAAGCUCCCAUUGAGGAGAAAUUAUCUCAAGACAUCAAAGAAUCCUUGGAAUUGAGCAACAGAGGAUUGAGCAUCA
B11: chr4:75800632:75800752:+|CDS|ENSG00000138768|unk|total|mutant (ssRNA)
RNA: GGGAGUUCUACAGUCCGACGAUCAAACAACUGAUUGAGAAGAGGAUUGGCAAAGAGAAUUUCACCGAGAAACCCGGAUUUAUCCGCAAACAUGAGUUGUAUUCCAGAGCAUCUCAGAAACCCCAGCCAAACUUUCCCAGUCCACAACAGAGGAUUGAGCAUCA
B12: chr10:89738052:89738153:+|CDS|ENSG00000138182|unk|FALSE|bound_elsewhere (ssRNA)
RNA: GGGAGUUCUACAGUCCGACGAUCCUGGAACAACAAAUUGAAAAAUUGCAGGCAGAAGUAAAAGGCUAUAAGGAUGAAAACAAUAGACUAAAGGAGAAGGAGCAUAAAAACCAAGAUGACCUACUAAAAGAAAAAGAAACUCUUCAACAGAGGAUUGAGCAUCA
B13: chr10:74120044:74120145:+|3pUTR|ENSG00000035403|msi1|total|mutant (ssRNA)
RNA: GGGAGUUCUACAGUCCGACGAUCAAAAAAAAUCCCUGAAUGAUGAUCCGAGACAUCACCGCUAAAAAACUACAUUUAUAAGCCCGGAUUUGUUAUAUGCAAAUAUUUUCUGCCUCUUCUUUUGUUCUGUUUAAAACAAUAAAACAACAGAGGAUUGAGCAUCA
B14: chr4:75577918:75578020:-|3pUTR|ENSG00000138769|unk|FALSE|unique (ssRNA)
RNA: GGGAGUUCUACAGUCCGACGAUCGGUUGUUUAGGGAACCAGAAUUUGUGAGUUUUUUUUUUUUUUUUGCCUUAACUAAUUAAUAGUGUGUUGCUUUUUUUCCAAAGCCAUUGACUAGAACUUAGCUGAAGAAUUUAACUAGAACAACAGAGGAUUGAGCAUCA
B15: chr6:13358100:13358202:-|3pUTR|ENSG00000145990|unk|total|mutant (ssRNA)
RNA: GGGAGUUCUACAGUCCGACGAUCAGUAAACAGAGUCUAUAUUUUCUAUAUAAUGCCGACCGUCAAACACCGCUUAUAAAUUACCGGAGGUUUUGGUUUUCUUUUUUAUUAUUAAAGGAAAAAAAGAAGAAAAAAAAAGACAAUCAACAGAGGAUUGAGCAUCA
B16: chr3:27418507:27418620:-|CDS|ENSG00000033867|unk|total|mutant (ssRNA)
RNA: GGGAGUUCUACAGUCCGACGAUCUGAUGCCGCUUAUAAAGCAAAAGACAGAAAUGACCUCUUAUCUGGAAUUGAUGAAUUUUCCGAUCAAGUAACUGUCCUACCUCCAGGAGAGUGGGAUCCUUCUAUACGCACCGAACCACCCAACAGAGGAUUGAGCAUCA
B17: ENSG00000198856:stop:overlap|stop_codon|ENSG00000198856|stop_codon|NA|stop_codon (ssRNA)
RNA: GGGAGUUCUACAGUCCGACGAUCUGAGUUUUUUCAUGGCUAGAGUAUUCAUGAGAAUGAAACUGCCGGGCUAUCUGAUGGGUUAGAGUGCCUUUGAGAAGAAAUCAGUGGAUACUGGAUUUGCUCCUGUCAAUGAAGUUUUAACAACAGAGGAUUGAGCAUCA
B18: chr1:67413009:67413110:-|3pUTR|ENSG00000142864|unk|FALSE|unique (ssRNA)
RNA: GGGAGUUCUACAGUCCGACGAUCCUGAAUUUUAUCUGUUUUAAAAAUGAACUUCUCCCGCUACACAGAAGUAACAAAUAUGGUAGUCAGUUUUGUAUUUAGAAAUGUAUUGGUAGCAGGGAUGUUUUCAUAAUUUUCAGAGAUCAACAGAGGAUUGAGCAUCA
B19: chr10:71816642:71816777:-|3pUTR|ENSG00000197746|msi1_unk|FALSE|overlapping (ssRNA)
RNA: GGGAGUUCUACAGUCCGACGAUCUUGUUUGGGGUUCUGUGGGUUUGGGUGGGAAGAGGGCCAUCUGCCUGAAUGUAACCUGCUAGCUCUCCGAAGGCCCUGCGGGCCUGGCUUGUGUGAGCGUGUGGACAGUGGUGGCCGCGCCAACAGAGGAUUGAGCAUCA
B20: chr3:138622260:138622368:+|CDS|ENSG00000158234|unk|total|mutant (ssRNA)
RNA: GGGAGUUCUACAGUCCGACGAUCAUCCGUGGGCAAAGAAACAUUCUAUGUUGGAGCUGCAAAGACAAAAGCGACCAUAAAUACCGACGCUAUCAGUGGUUUUGCUUAUGAAUAUACUCUGGAAAUUAAUGGGAAAAGUCUCAACAACAGAGGAUUGAGCAUCA
B21: chrY:12776687:12776788:+|CDS|ENSG00000114374|msi1|FALSE|unique (ssRNA)
RNA: GGGAGUUCUACAGUCCGACGAUCGUUUUUGAUGGUGACAAAAACAGCAUUAAUUGUGCAAGACAAGAAGCCAUUCGAAUGGUUAGAGUAUUAACUGUUAUAAAAGAGUACAUUAAUGAAUGUGACAGUGAUUAUCACAAGGAACAACAGAGGAUUGAGCAUCA
B22: chr18:2804133:2804242:+|3pUTR|ENSG00000101596|unk|FALSE|unique (ssRNA)
RNA: GGGAGUUCUACAGUCCGACGAUCGGUUAAAGAGAAAUGACUUUUUAGGAACUAGACUUGAACGUAUAAUUAAUAUGUGGAACUAGUUUGCUUUUAUAAUUCAUUGUAUCAAGAAGGAGUCAUGUUUUAAAUCCAAGGCAUUGACAACAGAGGAUUGAGCAUCA

Each binder was assayed against MSI1 full-length (mouse, UniProt Q61474 1-362) (assay: nsRBNS (natural sequence RNA bind-n-seq); RBNS binding buffer (assumed for nsRBNS): 25 mM Tris pH 7.5, 150 mM KCl, 3 mM MgCl2, 0.01% Triton X-100, 500 ug/ml BSA, 20 U/ml SUPERase-In, 4 C; UNK is unkempt and MSI1 is Musashi-1; names of the RNAs are library labels; protein concentration not given here; high values mean tight binding).
Sequence of UniProt Q61474 (Q61474 whole entry): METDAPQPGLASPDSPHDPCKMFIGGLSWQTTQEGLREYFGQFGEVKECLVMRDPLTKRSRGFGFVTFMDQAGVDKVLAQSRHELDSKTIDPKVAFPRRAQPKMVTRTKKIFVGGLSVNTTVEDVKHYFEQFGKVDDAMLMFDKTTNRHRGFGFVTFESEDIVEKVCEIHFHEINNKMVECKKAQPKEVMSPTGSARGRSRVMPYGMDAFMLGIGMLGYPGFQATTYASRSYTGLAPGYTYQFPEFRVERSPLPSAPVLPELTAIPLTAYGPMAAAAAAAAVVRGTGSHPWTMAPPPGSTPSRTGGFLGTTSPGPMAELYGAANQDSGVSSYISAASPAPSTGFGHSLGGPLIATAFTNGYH

Binder | binding signal
B1 | 0.543 enrichment R
B2 | 0.397 enrichment R
B3 | 1.15 enrichment R
B4 | 4.6 enrichment R
B5 | 9.62 enrichment R
B6 | 0.359 enrichment R
B7 | 5.23 enrichment R
B8 | 14.3 enrichment R
B9 | 1.83 enrichment R
B10 | 0.336 enrichment R
B11 | 0.541 enrichment R
B12 | 0.617 enrichment R
B13 | 0.643 enrichment R
B14 | 7.32 enrichment R
B15 | 1.9 enrichment R
B16 | 0.339 enrichment R
B17 | 16.4 enrichment R
B18 | 41.4 enrichment R
B19 | 0.578 enrichment R
B20 | 0.271 enrichment R
B21 | 0.746 enrichment R
B22 | 1.24 enrichment R

Source: paper PMC12136788
